Results from PubChem BioAssay AID624172 (National Center for Advancing Translational Sciences (NCATS), 2012).
Hit rate of the full screen: of about 380,000 compounds, about 25 (0.007%) were called active. The shares of active, inactive and inconclusive entries below differ from those in the screen. The call rests on the fitted dose curve; in most records, active means well fitted activation curve with a large enough effect; inconclusive means small, poorly fitted or top-dose-only effect; inactive means no such curve, though single readings can be large or run the other way. No potency is given beside an inconclusive call; the fits are too rough.

What follows are compounds tested against Glucagon-like peptide 1 receptor (Homo sapiens) (UniProt P43220) (assay: qHTS of GLP-1 Receptor Agonists). Conditions: HEK293 GLP-1R CRE-luciferase, luminescence, 4-6 h, cells express a hypersensitive GLP-1R form; activation: at 45.6 µM (top of the series) unless noted.
UniProt P43220, sequence (P43220 whole entry, looked up): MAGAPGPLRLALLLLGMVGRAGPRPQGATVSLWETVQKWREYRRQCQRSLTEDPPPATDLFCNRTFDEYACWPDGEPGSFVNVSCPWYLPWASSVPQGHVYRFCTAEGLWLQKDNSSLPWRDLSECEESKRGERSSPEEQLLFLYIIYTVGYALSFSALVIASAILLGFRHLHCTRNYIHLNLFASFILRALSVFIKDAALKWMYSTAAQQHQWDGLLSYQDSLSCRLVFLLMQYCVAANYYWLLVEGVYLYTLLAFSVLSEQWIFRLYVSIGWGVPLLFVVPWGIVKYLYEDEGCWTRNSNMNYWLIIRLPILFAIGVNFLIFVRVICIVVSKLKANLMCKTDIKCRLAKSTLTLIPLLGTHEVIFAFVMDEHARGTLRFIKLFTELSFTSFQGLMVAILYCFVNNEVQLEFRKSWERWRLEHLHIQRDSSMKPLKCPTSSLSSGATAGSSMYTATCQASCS
Potency means the concentration at half of the fitted maximal effect; tags describe the fitted curve by direction and shape.
Wherever activation is given: % of control where 0% means no effect.

Row | Compound | Potency | activation
1 | COCCN1C=C(C(=O)OC)C(c2cc(Br)c(OC)c(OC)c2)C(C(=O)OC)=C1 | inconclusive [activator, partial curve] | 
2 | CCN1C(=O)/C(=C/c2cc(C)n(C)c2C)SC1=Nc1ccc(OC)cc1 | inconclusive [activator, single point] | 
3 | Cc1cccc(CC(C)NC(=O)c2cc(COc3ccc(C)c(C)c3)on2)n1 (centres undefined) | inactive | 
4 | C/C=C/c1ccc(OCCSc2nc(C)cc(=O)[nH]2)c(OC)c1 | inconclusive [activator, single point] | 
5 | O=C(NC(c1ccccc1)c1ccccc1)c1ccc(Br)o1 | inactive | 
6 | Cc1cc(C)c2c(=O)n(CC(=O)Nc3ccc(Cl)cc3)sc2n1 | inactive | 
7 | CC(=O)NC(c1ccc(F)c(F)c1)c1nc(-c2cccc(C(C)C)c2)cs1 (centres undefined) | inconclusive [activator, partial curve, poor fit] | 
8 | COc1cccc(/C=N/n2cnc3cc(C)c(C)cc32)c1OC | inconclusive [activator, partial curve] | 
9 | Fc1ccccc1/C=N/Nc1ncnc2ccccc12 | inactive | 
10 | COc1cccc(COC(=O)c2nn(-c3ccccc3)nc2N)c1 | inconclusive [activator, single point] | 
11 | CCOc1ccc(C(C)NC(=O)c2ccccc2OCc2c(C)noc2C)cc1OCC (centres undefined) | inconclusive [activator, full curve, poor fit] | 
12 | COc1ccc(C2CC(c3ccc(OC)c(OC)c3)=NN2C(=O)c2ccccc2)cc1 (centres undefined) | inconclusive [activator, partial curve, poor fit] | 
13 | CNCCCC1Sc2ccccc2Oc2ccccc21 (centres undefined) | inactive | 
14 | COc1ccc(NC(=O)CCN2CCCCCC2)c(OC)c1 | inactive | 
15 | CCn1nc(C(=O)N[C@@H](CCSC)c2nc3ccccc3[nH]2)c2ccccc2c1=O | inconclusive [activator, partial curve, poor fit] | 
16 | Cc1cc(=O)c2cc(C(=O)c3ccccc3)ccc2[nH]1 | inactive | 
17 | O=C(N/N=C/c1cn(Cc2ccccc2)c2ccccc12)c1cc(O)cc(O)c1 | inconclusive [activator, single point] | 
18 | CCC1CCCCN1S(=O)(=O)c1ccccc1 (centres undefined) |  | inconclusive: 44.9% [activator]
19 | Cc1oc2cc3oc(=O)c(CCC(=O)NCCN4CCOCC4)c(C)c3cc2c1C | inactive | 
20 | Cc1cc(OCC(=O)N(C)Cc2ccccc2)ccc1Br | inactive | 
21 | CCn1c(SCc2nc3ccccc3s2)nnc1-c1ccccc1 | inconclusive [activator, partial curve] | 
22 | CCOc1ccc(/C=C/C2=CC(C)(C)NC(=S)N2)cc1 | inactive | 
23 | COc1ccccc1C(=O)OCc1ccc2sc(C)nc2c1 | inconclusive [activator, partial curve, poor fit] | 
24 | Cc1ccc(Cn2c(=O)n(CCCCC(=O)NCCc3ccc(Cl)cc3)c(=O)c3ccccc32)cc1 | inactive | 
25 | CCN(CC(=O)Nc1ccc(NC(C)=O)cc1)C(=O)C1CC1 | inconclusive [activator, partial curve] | 

Row | Compound | Potency | activation
26 | CC1(C)Cc2c(c(N3CCCC3)nc3sc4c(N5CCN(CCO)CC5)ncnc4c23)CO1 | inconclusive [activator, full curve] | 
27 | Cc1ccccc1OCC(=O)NNC(=S)NC(=O)c1ccco1 | inactive | 
28 | CCN(CC)S(=O)(=O)c1ccc(C)c(NC(=O)CN2C(=O)NC3(CCCC3)C2=O)c1 | inactive | 
29 | N/C(Cc1cccs1)=N\OC(=O)COc1ccc(Br)cc1Cl | inconclusive [activator, single point] | 
30 | CC(C)N1CC(O)=C(c2nc3ccccc3[nH]2)C1=N | inactive | 
31 | COCC[N+]1(C)CCCCC1 | inactive | 
32 | C[C@H]1CC[C@H]2C(=O)N[C@H](Cc3ccccc3)C(=O)N2[C@@H]1c1ccccc1 |  | inconclusive: 30.5% [activator]
33 | CCn1cc(C(=O)NC(C)CCc2ccccc2)c(=O)c2cc(S(=O)(=O)N(C)C)ccc21 (centres undefined) | inconclusive [activator, partial curve, poor fit] | 
34 | COc1ccc(-n2nc(C(=O)NCC(=O)N3CCCCC3)c3ccccc3c2=O)c(OC)c1 | inactive | 
35 | Cc1csc(SCC(=O)Nc2ccccc2)n1 | inactive | 
36 | COC(=O)c1sccc1NC(=O)COc1cccc(C)c1 | inconclusive [activator, partial curve, poor fit] | 
37 | CC(C)(C)NC[C@H](O)c1cc(O)cc(O)c1 |  | inconclusive: 45% [activator]
38 | COc1ccc(S(=O)(=O)N2CC(O)C[C@H]2C(=O)OCC(=O)N2CCCCCC2)cc1 (some centres undefined) | inconclusive [activator, single point] | 
39 | COc1ccc(Cl)cc1C(=O)Nn1cnc2ccccc2c1=O | inactive | 
40 | Cc1nn2c(N)c(C#N)cnc2c1-c1ccccc1 | inconclusive [activator, partial curve, poor fit] | 
41 | Cc1ccccc1-c1cc2nc(OCC3CCCO3)n(C)c(=O)c2s1 (centres undefined) | inactive | 
42 | CCCS(=O)(=O)Nc1cccc(-c2nc3cccnc3s2)c1 | inconclusive [activator, single point] | 
43 | O=C(N/N=C1\CC(c2ccccc2)Oc2ccccc21)c1ccccn1 (centres undefined) | inactive | 
44 | COc1ccc(CN2CCC2(C)C(=O)Nc2cccc(NS(C)(=O)=O)c2)c2ccccc12 (centres undefined) | inconclusive [activator, partial curve, poor fit] | 
45 | O=C(NCc1ccco1)c1csc(Nc2ccccc2Cl)n1 | inconclusive [activator, single point] | 
46 | CCCn1c(C)cc(C(=O)COC(=O)c2ccc[nH]c2=O)c1C | inactive | 
47 | CCCCN(CC(O)COc1cccc(C)c1)CC(O)COc1cccc(C)c1 (centres undefined) | inactive | 
48 | CCc1cc2c(NCC3CCCO3)nc(C)nc2s1 (centres undefined) | inconclusive [activator, single point] | 
49 | CCN(Cc1ccc(OC)c(F)c1)C(=O)c1cc2ccccc2o1 | inconclusive [activator, single point] | 
